In US20220370434A1, “METHODS AND COMPOSITIONS FOR TREATING CANCER” (City of Hope, priority 2019, published 2022):

What was measured:
[1] = test system: murine MLL-AF9 (MA9) and FLT3ITD/NPM1mut primary leukemic cells; assay: Self-renewal of LSCs/LICs (limiting dilution analysis); format: cell-based
Description: Given the increased abundance of FTO in AML cells and CD34^+ AML cells, we reasoned the critical oncogenic function of FTO both in established leukemic cells as well as in LSCs. The function of FTO on myeloid differentiation, cell apoptosis and colony forming activity of AML patients derived LSCs was evaluated. It was observed that leukemia differentiation following FTO knockdown is associated with increased cell apoptosis in AML patients.

[2] = test system: healthy CD34+ HSPCs; assay: Cell viability of healthy donor-derived CD34+ HSPCs; format: cell-based, human; settings: 100 nM formula (I), 200 nM formula (II), 48 hours
[3] = test system: K562 and TF-1 cells; assay: Cell growth/proliferation IC50 in leukemia cells with lower FTO expression; settings: 72 hours; cells with low FTO expression
[4] = test system: MA9.3ITD AML cells; assay: Xenograft AML mouse model with MA9.3ITD cells; settings: for survival (Kaplan-Meier): cells pretreated 100 nM 48 hours, 2 mg/kg/day every other day i.p., ten treatments; for engraftment of human AML cells (hCD33 positive): peripheral blood, bone marrow, spleen, end point
[5] = test system: murine FLT3ITD/NPM1mut leukemic cells; assay: Colony forming assay
[6] = test system: NOMO-1, MONOMAC 6 (MM6), MV4-11, ML-2, MA9.3ITD and U937 cells; assay: Cell growth/proliferation IC50 in leukemia cells with higher FTO expression; settings: 72 hours; cells with high FTO expression
[7] = test system: NOMO-1 cells; assay: Cell cycle assay; format: cell-based; settings: 48 hour
Description: Cell cycle and apoptosis assays: Propidium Iodide (PI) DNA staining was chosen to assess the cells located at G0/G1, S, and G2/M stages; while Hoechest 33342 and Pyronin Y was selected to evaluate cells at G0, G1, and S/G2/M phases. For PI staining, 1*10^6 cells were collected, washed once with PBS, and suspended in 1 ml buffer with 0.05 mg/ml PI, 0.1% trisodium citrate, 0.02 mg/ml ribonuclease A, 0.3% NP-40, incubated at 37° C. for 30 minutes, and then applied to flow cytometer directly. As Hochest 33342/Pyronin Y staining, the cells were collected, washed, and re-suspended in 1 ml cell culture medium, stained with 10 μg/ml Hochest 33342 at 37° C. for 45 minutes, and further stained with 0.5 μg/ml Pyronin Y for additional 15 minutes at 37° C. The samples were transferred onto ice before subjected to flow cytometry. Cell apoptosis was validated with PE Annexin V Apoptosis Detection Kit I (559763, BD Biosciences) according to the instructed protocol. Flow cytometry was performed with Fortessa X20 and the related results were analyzed with FlowJo V10 software.

[8] = test system: NOMO-1 AML cells with FTO knockdown; assay: Cell viability with knockdown of FTO (shFTO); format: cell-based
[9] = test system: NOMO-1 AML cells; assay: Xenograft AML mouse model with NOMO-1 cells; format: in vivo, NRGS mice; settings: cells pretreated 100 nM 48 hours; 2 mg/kg/day every other day i.p., ten treatments
[10] = biological target: TET1 (Homo sapiens, UniProt Q8NFU7); assay: DNA demethylase activity of TET1; format: biochemical
[11] = test system: NB4 cells; assay: ATRA induced myeloid differentiation (CD11b, CD14); format: cell-based; settings: 200 nM ATRA, 50 nM formula (I) or 100 nM formula (II), 48 hours
Description: Flow cytometry analysis: Flow cytometry analysis with surface markers was conducted as described previously with some modifications (33). Antibodies used include anti-mouse CD45.2-PE (12-0454-83, Thermo Fisher Scientific), anti-Human CD33 PE (12-0339-42, Thermo Fisher Scientific), PE anti-mouse/human CD11b antibody, anti-Human CD15 APC (17-0158-42, eBioscience), and anti-Human CD34 FITC (11-0349-42, eBioscience).

[12] = test system: primary murine MLL-AF9 (MA9) leukemic cells; assay: Colony forming assay; settings: 10 nM and 50 nM

SMILES | self-renewal activity of LSCs/LICs [1] | toxicity on normal cells (cell viability) [2] | IC50 values [3] | survival (Kaplan-Meier) [4] | engraftment of human AML cells (hCD33 positive) [4] | colony forming activity ([5]; 1 μM and 5 μM) | IC50 values [6] | cell cycle, Hoechest 33342/Pyronin Y staining [7] | cell cycle, PI staining [7] | sensitivity upon knockdown of FTO (shFTO) [8] | survival (Kaplan-Meier) [9] | DNA demethylase activity of TET1 [10] | myeloid differentiation [11] | anti-leukemic effects compared with FB23-2 (survival, spleen weight, engraftment) ([4]; mouse, in vivo) | colony forming activity ([5]; 10 nM and 50 nM, b390) | colony forming activity [12]
Cc1c(-c2ccc(-c3ccccc3F)cc2)nc2ccc(F)cc2c1C(=O)O [formula (II)] | attenuation on self-renewal activity of LSCs/LICs | little obvious toxicity on normal cells | higher IC50 values | lived significantly longer than the control groups | blocked engraftment of leukemia cells into peripheral blood, bone marrow, and spleen | decreased the colony forming activity | lower IC50 values | Cell cycle arrest in G0 phase | cell cycle arrest was observed in G0/G1 and S stages | decreased the sensitivity | lived significantly longer than the control groups | did not suppress | accelerated ATRA induced myeloid differentiation |  |  | 
C(=N\NC1=NCCN1)/c1c2ccccc2c(/C=N/NC2=NCCN2)c2ccccc12 [formula (I)] | attenuation on self-renewal activity of LSCs/LICs | little obvious toxicity on normal cells | higher IC50 values | lived significantly longer than the control groups | blocked engraftment of leukemia cells into peripheral blood, bone marrow, and spleen |  | lower IC50 values | Cell cycle arrest in G0 phase | cell cycle arrest was observed in G0/G1 and S stages | decreased the sensitivity | lived significantly longer than the control groups | did not suppress | accelerated ATRA induced myeloid differentiation | much stronger anti-leukemic effects than FB23-2 | decreased the colony forming activity | decreased the colony forming activity
